{
  "source": "PubChem BioAssay AID624296",
  "about": "(National Center for Advancing Translational Sciences (NCATS), 2012)",
  "note": "Out of some 350,000 compounds screened, about 9,900 (2.8%) were called active. Inconclusive results, whose numbers are uncertain, are shown with a selection of clear calls. The call rests on the fitted dose curve; in most records, active means well fitted activation curve with a large enough effect; inconclusive means small, poorly fitted or top-dose-only effect; inactive means no such curve, though single readings can be large or run the other way. No potency is given beside an inconclusive call; the fits are too rough. Potency means the concentration at half of the fitted maximal effect; tags describe the fitted curve by direction and shape.",
  "data": [
    {"assay": "A quantitative high throughput screen for small molecules that induce DNA re-replication in MCF 10a normal breast cells; further: nearly all actives have a fitted effect of over 50% in size; on activity, positive = re-replication: % of control where 0% means no effect.", "conditions": "MCF 10A DNA re-replication, Hoechst nuclear intensity, 48 h; activity, positive = re-replication: at 46.1 µM (top of the series)", "values": [
      {"smiles": "COc1ccc(OC)c(S(=O)(=O)NCCC2=CCCCC2)c1", "Potency": "inconclusive [activator, single point]"},
      {"smiles": "Cc1cc(OCC(=O)Nc2ccc(CN3CCCCC3)cc2)ccc1Cl", "Potency": "inconclusive [activator, single point]"},
      {"smiles": "CCOC(=O)CC(Nc1nc(N2CCOCC2)nc(N2CCOCC2)n1)c1ccccc1Cl", "note": "(centres undefined)", "Potency": "inconclusive [activator, full curve, poor fit]"},
      {"smiles": "CCNc1nc(NCC)nc(C(=O)NN)n1", "activity, positive = re-replication": "inactive: -4.07%"},
      {"smiles": "CCOc1ccc(/C=C/C2=CC(C)(C)NC(=S)N2)cc1", "Potency": "inconclusive [activator, single point]"},
      {"smiles": "NC(=O)CSc1nnnn1-c1ccc2c(c1)OCCO2", "Potency": "inconclusive [activator, partial curve, poor fit]"},
      {"smiles": "COc1cc(/C=N\\NC(C)=O)ccc1OC/C=C/c1ccccc1", "activity, positive = re-replication": "inactive: 0.776%"},
      {"smiles": "O=C(Cc1ccc(Cl)c(Cl)c1)Nc1ccccc1N1CCCC1", "Potency": "inconclusive [activator, partial curve, poor fit]"},
      {"smiles": "OCCNc1nc(N2CCN(c3ccccc3)CC2)nc2ccccc12", "Potency": "active: 7.31 µM"},
      {"smiles": "C/C(=N\\NC(=O)c1ccoc1C)c1cccc2ccccc12", "Potency": "inconclusive [activator, partial curve, poor fit]"},
      {"smiles": "COC(=O)c1ccc2[nH]c3cccc(/C(=C/c4ccccc4)c4ccccc4)c3c2c1", "Potency": "active: 11.6 µM"},
      {"smiles": "O=C(NC(=S)Nc1ccccc1)c1cccs1", "Potency": "inconclusive [activator, partial curve, poor fit]"},
      {"smiles": "Cc1cccc(N2CCN(S(=O)(=O)c3ccc4c(c3)NC(=O)CO4)CC2)c1C", "Potency": "inconclusive [activator, partial curve, poor fit]"},
      {"smiles": "Cc1ccc(NC(=O)COc2ccc(/C=N\\NC(=O)c3cccnc3)cc2)cc1C", "Potency": "inconclusive [activator, full curve, poor fit]"},
      {"smiles": "CC1CC(Nc2ccccc2)c2ccccc2N1C(=O)c1ccco1", "note": "(centres undefined)", "Potency": "inconclusive [activator, single point]"},
      {"smiles": "O=C(CSC1=NCCS1)N1CCN(c2ccc(Cl)cc2)CC1", "Potency": "inconclusive [activator, partial curve, poor fit]"},
      {"smiles": "COc1cc(C(=O)N(C)CC(=O)Nc2cccc(F)c2)ccc1OCc1ccccc1", "activity, positive = re-replication": "inactive: -1.52%"},
      {"smiles": "CC1=C(C(=O)N(C)C)C(c2ccc(Cl)c(Cl)c2)NC(=O)N1", "note": "(centres undefined)", "activity, positive = re-replication": "inactive: -3.19%"},
      {"smiles": "O=C(CSCC(=O)Nc1ccccc1)N/N=C/c1c(O)ccc2ccccc12", "Potency": "inconclusive [activator, partial curve, poor fit]"}
    ]}
  ]
}
